# The other results are listed elsewhere or left out.
# Tested on: PfAP2-HC AP2 domain (GST-tagged)
# Assay: gcPBM binding intensity (ln(normalized median fluorescence intensity)); higher = stronger DNA binding
# Summary of the method: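 DNA-binding domains from P. falciparum, fused to GST and produced in E. coli, were put on an Agilent 4 × 180k double-stranded probe array for 1 h in 1× PBS holding 1% milk, 0.2 mg/ml BSA, 0.5% salmon testes DNA and 0.03% Triton X-100. Probes were primer-extended, 36 bp long and drawn from intergenic genomic regions, with negative controls included. After Alexa488 anti-GST antibody detection and a 488 nm scan, binding intensity was set as the highest Masliner-normalised natural-log median intensity across replicate spots of either probe orientation.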
row,Sequence,gcPBM binding intensity (ln)
1,TTATTGTAAATATATGCATGTGCAAAATGAAAAAAA [TGCATGCA_site399],9.69
2,ATGTTTACATATTAGGGTACATAATAAATTGCATAT [XGTACX_site6712],9.53
3,CATGTATTTTATATTACACACTAATATTATATATAT [CACACA_site1508],9.77
4,GAATGTATAAAATGAACACACGCCAAATTAAATGAA [CACACA_site3044],9.8
5,AAAAATAATGCACATATATATAATATGTATATGTAT [CACACA_negctrl_site443],9.75
6,AAAAAATTAAATAATTACAAAAAAATAAAATAAAAA [GTGCAC_negctrl_site638],9.59
7,AATAAACAAATATGTACACACATATACCTATAAATA [CACACA_site7358],9.93
8,ATATTAGATTAATTTACACACAGAAAATGAGATTTT [CACACA_site541],9.79
9,TAGAGTATATATAAATGTACATATTTTATGCTAATT [XGTACX_site7821],9.66
10,AAACAATACATATATTGTACATATATTATATTATAT [XGTACX_site8136],9.84
11,CGGATCTATAAGTGTACACAATCTAGCGAAAAGTTT [CACACA_site4932],9.52
12,TTAGAAATTCATTTTACACACAATTCAAAAGAATGT [CACACA_site2104],9.71
13,AATTTGAAATAAAGTAGTACAGTATATAAAAATATA [XGTACX_site128],9.74
14,ATAATGATTATAATATGTACATAAATATATATATTA [XGTACX_site5029],9.73
15,ATTATGTTATATATATGTACATATATAATGTTCATA [XGTACX_site6184],9.6
16,AATAAATAAACAAATTAACACACAGAATTTTTTTTT [CACACA_site8485],9.94
17,ATAATTATAAAATAAACACACATATATATTTATATG [CACACA_site440],9.77
18,ATAAAATAAAAAAGTAGTACACACTTCACGATATTT [XGTACX_site8289],9.86
19,GTTATACACATATATACACACATATGTAGATATATA [CACACA_site7529],9.8
20,TTGATATCTTTTTTTTGTACATATATTTATAAGTAA [XGTACX_site3538],9.54
21,TTTTAGAGTGATATATATTAACTTTTAATAAAAAAA [CACACA_negctrl_site611],9.33
22,AAAATATAAGCCACTACACACATATATAAATGTATA [CACACA_site2639],10.5

row,Sequence,gcPBM binding intensity (ln)
1,TTTTTTTAAATTATATGTACATAATTTTAATTTTAT [XGTACX_site5086],9.63
2,ATACATATATTTTTATGTACATATATTTTTTTTGTA [XGTACX_site4546],9.71
3,TATAATATTCCTTTTTAACACACATATGAACAAATA [CACACA_site7932],9.58
4,ATAAATAAATAAATACGTACATATATATATATATAT [XGTACX_site8838],9.66
5,TTACCTATTCTAAAATGTACACATTATATATGTGCT [XGTACX_site5776],9.98
6,ACATGTTTCATATGTTGTACTAACTTAAATATAAAT [XGTACX_site6412],9.5
7,ATGATTTTTTTTATTTTTTAGCTAGAGCTAGCTTAT [CACACA_negctrl_site433],9.47
8,TATGGAAGAAAATATACACACAAAAAAAAAAAATGG [CACACA_site4924],9.9
9,ATATGTTAAAAATTCACACAAAAAAGTATACAGATA [CACACA_site4179],9.92
10,TATGAATGCTTTTATGCACACGTACAAAAATATTAT [CACACA_site8851],9.68
11,TTAACTATAATAAAATGTACATATGTAACATATATA [XGTACX_site7790],9.49
12,AGGTCCTACACCAATAAATATCATATATATATTATA [CACACA_negctrl_site568],9.43
13,TTATAACAAAAAATTAAAGAAAGAGAATAAGTGAAA [CACACA_negctrl_site975],9.64
14,TTGTACATCTTTTGCACACGTAATGTTATTAAAATA [CACACA_site4827],9.72
15,TGTATATTTGTTGTTACACACATATATTTTTTTTTT [CACACA_site128],9.86
16,TCATCATGTATGTACACACATACATATATTATGTAC [CACACA_site1386],9.89
17,CTTTTTGAAATATTAACACACATTTTGTTAATGAAT [CACACA_site6087],9.59
18,TATAAGTAGATAAGGGTGCACAATATAAATATATAG,10.1
19,GGTTAGACGAAATATACATGCAATGGAAAATAAGTT [TGCATGCA_site23],9.74
20,ATATTAATTTCTCATGCATGTTCTTCCCAATTGTAA [TGCATGCA_site425],9.85
21,GGAATAAAGACAGCACGTACATATCTTACGAAGCTC [XGTACX_site3918],9.65
22,CACAAGAAAATTCACACACACACATATATATATATA [CACACA_site3880],10.9

row,Sequence,gcPBM binding intensity (ln)
1,TCCTTAATTCAAAAAATAATATCTTATATTTCAAAT [CACACA_negctrl_site1592],9.13
2,TGAAATAAAATTTGTACACACATATTTATTTATATA [CACACA_site6421],9.77
3,TGCATTATATTAAATTTTTTATTTGTTGATGTTATA [GTGCAC_negctrl_site371],9.55
4,AAATAAAAGATATTTTTACACACTTTTGATGAGATC [CACACA_site9000],9.58
5,TATTTTTTTTGTCATATATAAGAAACGCTCTTCTTT [TGCATGCA_negctrl_site127],9.46
6,ATATTTATATTTTCATGTACGTATTTTTATATATAT [XGTACX_site8478],9.9
7,ATTTTTATTAGTTATTGTACTTATTATTTATTAATT [XGTACX_site2568],9.78
8,TATAGATATATACGGTGTACATACATAAAAAAAAAA [XGTACX_site1648],9.72
9,TATAGTCAACTAGTCACACATATAATTATATATATA [CACACA_site5872],9.64
10,TATAAAGAAATCATTACACACAAATAAATACATACA [CACACA_site2675],10.1
11,ATATATATACATATAACACACACATATATATATATA [CACACA_site8827],10
12,TTGTATTTATTTATGGGAGGATTATAATCATTGTAG [GTGCAC_negctrl_site268],9.49
13,TAATTCACATTTTATACACACATTCGAACCTTTTTT [CACACA_site3341],9.92
14,ATGAAAATTTATATTGCACACATAGGGAATAAAAAA [CACACA_site8667],9.86
15,AAATATATTATATTTAGTACGCATATATAATATGCA [XGTACX_site4835],9.41
16,AGTTAATTAATAGGCACACATATATATGTATAAATA [CACACA_site523],9.8
17,GTAAGAATATTTATAAATGTATAATTTGTATTATTT [GTGCAC_negctrl_site667],9.59
18,TAAAATATCATAGATAGTACATATAACGTTTTATAT [XGTACX_site5666],9.68
19,ATCGAAATTTTAGAATATATATGATGTTACTTAAGT [GTGCAC_negctrl_site611],9.5
20,CATGACATAAAAAATATACACACTATAATATATATA [CACACA_site1402],9.87
21,TATATATCTATATTTACACACAGTTACTATGTAGAT [CACACA_site7532],9.85
22,GTTAAACTTAATATCGGTACACACACAAGATAAGAA [XGTACX_site1660],10.7

row,Sequence,gcPBM binding intensity (ln)
1,ATAATATGTATAATCACACATTTTTCTTTTAAGACA [CACACA_site5297],9.59
2,ACCATATAAATAAACACACACACACCCATATATATA [CACACA_site2321],10.6
3,GGTTCATTAAAGTGTACACATAAATACCGTAACATT [CACACA_site6002],9.69
4,CTAAGGTATGATTAATCACACACATAAATATATATA [CACACA_site8847],10.1
5,GTGGCTACTATATATTGTACGATATTATATATATAC [XGTACX_site8376],9.84
6,AGAATAAGAATTATTAGTACTTATAAATATTATATT [XGTACX_site7228],9.43
7,TAATTTAAAATATATAGTACACACGTGAACACAAAT [XGTACX_site792],10
8,CTATTACATTAAATGTGTACATATATATATATATAT [XGTACX_site5233],9.82
9,GTAAATACACATATGTGTACATATATATATATATAT [XGTACX_site3696],9.89
10,TTCTTTAAAAAATTCGATAAAAAAAAAAAAAGAAAA [CACACA_negctrl_site242],9.31
11,TATATACTCATGCGCACACACAAGTGGGAAATTTGG [CACACA_site5056],10.2
12,ATATACATATATATTGCATGCAGAGAGTATTTATAA [TGCATGCA_site646],9.71
13,ATATATATATATATTGTGCACAAAAAAAAATAAGCA,9.95
14,ATATATTATAGGTACACACACATATAAGGGATTATA [CACACA_site6154],10.4
15,GGAAAGACAGTTCACAGTACCCAGGAAATCTACGGA [XGTACX_site1996],9.62
16,CTTTGTAGTATATTAACACACAACTGTTTATAATAT [CACACA_site6038],9.92
17,TATATATATATTTAGTGTACTTAAAAAAAATAATAA [XGTACX_site5454],9.57
18,ATAATAATAAAATATATATACAAAGGTGAAATTATA [TGCATGCA_negctrl_site197],9.81
19,TATTTTTTTTTCCATTGTACATTTTTGATATTTTTC [XGTACX_site744],9.8
20,TTATTAAATATGTACACACGTACATTTTATAAATGA [CACACA_site2387],9.56
21,GGAAAATCTAATCATTTAATATTTATTTATCTAATT [GTGCAC_negctrl_site553],9.34
22,ATTTTATATAATACATGTACAAAAGTTTAAATTTAT [XGTACX_site6196],9.73
